# Measured values reported in article PMC4336329 (PLoS ONE, 2015).
# About 2,200 (0.71%) of roughly 310,000 compounds showed an effect of 50% or more. Effects have a minus sign here. Some of the results follow.
# Target: human ether-à-go-go-related gene (hERG) potassium channel (human, UniProt Q12809)
# Assay: primary screen, population patch clamp on CHO cells stably expressing hERG
# Chain of human ether-à-go-go-related gene (hERG) potassium channel (Q12809 whole entry, looked up): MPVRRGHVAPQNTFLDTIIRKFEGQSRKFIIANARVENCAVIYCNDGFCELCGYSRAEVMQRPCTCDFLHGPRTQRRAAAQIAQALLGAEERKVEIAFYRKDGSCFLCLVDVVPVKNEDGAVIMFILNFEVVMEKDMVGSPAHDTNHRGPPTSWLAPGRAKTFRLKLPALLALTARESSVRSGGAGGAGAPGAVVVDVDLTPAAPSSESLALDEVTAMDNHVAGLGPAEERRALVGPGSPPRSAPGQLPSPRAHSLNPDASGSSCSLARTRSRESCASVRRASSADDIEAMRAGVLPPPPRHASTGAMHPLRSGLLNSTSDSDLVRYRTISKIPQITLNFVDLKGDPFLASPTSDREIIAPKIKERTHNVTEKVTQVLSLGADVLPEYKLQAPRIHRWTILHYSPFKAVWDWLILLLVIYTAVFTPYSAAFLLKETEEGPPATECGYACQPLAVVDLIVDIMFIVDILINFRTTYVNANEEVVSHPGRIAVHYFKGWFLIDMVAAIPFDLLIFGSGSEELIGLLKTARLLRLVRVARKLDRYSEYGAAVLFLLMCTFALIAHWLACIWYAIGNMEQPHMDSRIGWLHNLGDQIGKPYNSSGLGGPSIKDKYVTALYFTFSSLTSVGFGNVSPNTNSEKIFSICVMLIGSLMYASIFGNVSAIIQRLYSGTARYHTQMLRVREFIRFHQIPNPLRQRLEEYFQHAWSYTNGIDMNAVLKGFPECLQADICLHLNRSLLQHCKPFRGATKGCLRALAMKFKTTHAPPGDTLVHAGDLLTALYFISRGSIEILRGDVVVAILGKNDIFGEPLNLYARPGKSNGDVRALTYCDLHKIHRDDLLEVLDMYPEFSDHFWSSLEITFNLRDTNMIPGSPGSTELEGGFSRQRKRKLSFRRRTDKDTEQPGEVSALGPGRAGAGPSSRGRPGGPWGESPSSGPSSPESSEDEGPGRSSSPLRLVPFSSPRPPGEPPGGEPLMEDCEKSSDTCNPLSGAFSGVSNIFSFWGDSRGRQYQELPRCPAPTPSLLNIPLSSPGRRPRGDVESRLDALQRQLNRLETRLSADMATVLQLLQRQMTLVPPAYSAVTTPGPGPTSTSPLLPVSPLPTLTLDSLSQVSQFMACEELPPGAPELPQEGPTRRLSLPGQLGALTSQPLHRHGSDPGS
row,Compound,"hERG current change (%, negative = inhibition) at 1uM [%]"
1,Cc1ccccc1NC(=O)c1ccc(C)c(S(=O)(=O)NCc2cccnc2)c1,16.7
2,Cc1coc2c(C)c3oc(=O)c(CCC(=O)N4CCC(C(=O)NCCCC(=O)O)(c5ccccc5)CC4)c(C)c3cc12,9.81
3,COc1cc2c(cc1OC)CN(C(=O)c1cccc([N+](=O)[O-])c1)CC2,15.2
4,O=C1NC(=O)C(CCc2ccncc2)(C2CCCCC2)C(=O)N1,11.2
5,CCOc1ccc(-c2csc(NC(=O)c3ccc(S(=O)(=O)N4CCc5ccccc5C4)cc3)n2)cc1,13.8
6,CCN(Cc1ccccc1)C(=O)CCS(=O)(=O)c1ccc2c(c1)n(C)c(=O)c(=O)n2C,5.12
7,CC1CCCCN1C(=O)Cn1c(=O)oc2cc(S(=O)(=O)N3CCCCC3)ccc21 (centres unmarked),17.4
8,C=CCn1c(O)c(C(CC)=NCc2ccc3c(c2)OCO3)c(=O)[nH]c1=O,13.1
9,O=C(Cc1cccs1)NCc1ccccc1,5.91
10,Cc1cc(N2CCCCC2C)nc(-c2ccccc2O)n1 (centres unmarked),-19.4
11,O=C(CCl)Nc1c2c(nn1-c1ccccc1)CSC2,2.65
12,COc1ccc(S(=O)(=O)NNC(=O)c2sccc2-n2cccc2)cc1,6.85
13,C=CCn1c(SCC(=O)Nc2cc(C)cc(C)c2)nnc1-c1cnccn1,-13.8
14,CCc1ccccc1NC(=S)Nn1cnnc1,13.5
15,CCc1sc(N(C(=O)Cc2ccccc2)c2ccccc2F)nc1-c1ccc(C)cc1,27
16,COC(=O)Nc1c(-c2ccccc2)nc2ccc(C)cn12,3.16
17,COc1ccccc1NC(=O)Nc1cccc(C(=O)O)c1,17.1
18,Cn1c(SCc2cccnc2)nc2cccnc21,3.12
19,COc1ccc(C2=NS(=O)(=O)N(C)C(C(=O)NC3CCCCC3)=C2)cc1,4.77
20,COc1cc(OC)c(C(=O)OCC(=O)Nc2c(C)n(C)n(-c3ccccc3)c2=O)cc1OC,11
21,COc1ccc(NC(=S)N(CCN(C)C)Cc2cccs2)cc1,2.03
22,C=C(C)C1CCC2(C(=O)O)CCC3(C)C(CCC4C5(C)C(C=O)C(O)C(C)(C)C5CCC43C)C12 (centres unmarked),5.38

row,Compound,"hERG current change (%, negative = inhibition) at 1uM [%]"
1,CC(C)C(NS(=O)(=O)c1ccccc1)C(=O)N1CCN(C(=O)c2ccco2)CC1 (centres unmarked),7.7
2,CSc1ccc(S(=O)(=O)N(CC(=O)NCc2ccccn2)c2ccc(C)cc2)cc1,-1.15
3,Cc1ccc(NC(=O)C(C)Sc2nnc(C)n2C)cc1 (centres unmarked),15
4,Cc1cc(OCC(=O)NCC2CCC(C(=O)O)CC2)c2c(C)c(Cc3ccccc3)c(=O)oc2c1 (centres unmarked),12.4
5,COc1ccc2oc(C(=O)OCC(=O)N(C)c3ccccc3)c(C)c2c1,12.5
6,O=C(NNC(=O)C(c1ccccc1)c1ccccc1)c1ccccn1,4.49
7,Cc1[nH]c2ccccc2c1N=Nc1ccccc1C(=O)O,11.4
8,O=C(CSc1nc2ccccc2n1CC(=O)N1CCCC1)Nc1nccs1,-12.7
9,CC(=O)N1CCCN(Cc2cn(-c3cc(C)ccc3C)nc2-c2ccccc2)CC1,-14.1
10,Cc1cc(OCc2nn[nH]n2)c2c3c(c(=O)oc2c1)CCCC3,7.59
11,Cc1ccc(S(=O)(=O)NC(=O)Nc2ccc(OC(F)F)cc2)cc1,3.96
12,CCn1c(=O)cc(SCC(=O)N2CCN(c3ccccc3OC)CC2)c2ccccc21,-6.97
13,CCCCn1c(N)c(N(CCOC)C(=O)c2ccc(-c3ccc(Cl)cc3)o2)c(=O)[nH]c1=O,6.7
14,CS(=O)(=O)c1ccc(-c2nnc(NC(=O)C3=COCCO3)o2)cc1,6.56
15,CCCN(CCC)CCNC(=O)C(NS(=O)(=O)c1ccc2c(c1)CCC(=O)N2)c1ccccc1 (centres unmarked),5.19
16,O=C(c1ccc(Cl)nc1)N1CCC(Cc2ccccc2)CC1,5.19
17,CCn1cc(C(=O)NC(C)C2CC3CCC2C3)cn1 (centres unmarked),6.6
18,NC(=O)[C@@H]1CC2(CC(c3cccc(NC(=O)[C@H]4CCC(=O)N4)c3)=NO2)CN1C(=O)c1ccc(Cl)cc1 (some centres unmarked),7.6
19,COc1ccc(N=Cc2c(O)[nH]c3ccccc23)cc1OC,-3.63
20,Cc1ccccc1CSc1nc2c(c(=O)[nH]1)CCCC2,8.2
21,Cn1nnnc1NCc1ccccc1F,14
22,COC(=O)C1=C(C(=O)OC)[C@@H]2N(C)c3ccc(OC)cc3[C@@]23C[C@@H](C(=O)OC)N(C(=O)COCc2ccccc2)C3=N1,-2.56

row,Compound,"hERG current change (%, negative = inhibition) at 1uM [%]"
1,COCCNC(=O)CSc1nc2sccc2c(=O)n1-c1ccccc1,16.6
2,CN(C)CCCNC(=O)C(=O)NCC(c1cccs1)S(=O)(=O)c1ccc(F)cc1 (centres unmarked),15.6
3,COc1ccccc1NC(=O)c1ccc(C(=O)Nc2ccccc2OC)nc1,16.9
4,S=C(NC1CCCCC1)N1CCN(c2ncccn2)CC1,19.3
5,O=C(NC(=S)N1C[C@H]2C[C@H](C1)c1cccc(=O)n1C2)c1ccc(Cl)cc1Cl,-5.39
6,COC(=O)c1cc(S(=O)(=O)NCc2ccccc2Cl)c[nH]1,19.2
7,CN1CCN(c2ccc(NC(=O)Oc3ccccc3)cc2)CC1,17.4
8,O=C(Nc1ccc2c(c1)OCCO2)c1ccncc1,11.8
9,Cl.Clc1ccc(CN2C3=NCCCN3c3ccccc32)cc1Cl,-51.4
10,Cc1cc(NC(=O)CSc2nnc(C3CC3)n2Cc2ccccc2)no1,0.512
11,O=C1CN(C(=O)CCCc2c[nH]c3ccccc23)c2ccccc2N1,6.7
12,CC(=O)N1CCN(S(=O)(=O)c2cccc(C(=O)OCc3cccc(F)c3)c2)CC1,14.4
13,CCC(C)(C)n1nnnc1CN1CCN(c2nc3cc(OC)ccc3cc2C#N)CC1,2.69
14,O=C(O)[C@H]1C[C@@H]1[C@H](NP(=O)(c1ccccc1)c1ccccc1)c1ccccc1,20.9
15,CCOC(=O)Nc1ccc2nc3n(c(=O)c2c1)CCCCC3,9.48
16,O=C(N/N=C/c1ccc(OC(=O)c2ccco2)cc1)c1ccc[n+]([O-])c1,11.8
17,CSc1nc2nccc(-c3ccc(Oc4ccccc4)cc3)n2n1,15.3
18,Cc1ccc(C)c(CN2CCC(n3nnc4cc(F)ccc43)CC2)c1,-3.37
19,CCOc1ccccc1NC(=O)CN(c1ccc(C)cc1)S(=O)(=O)c1c(C)noc1C,2.63
20,O=C1CCC(C(=O)N(c2ccccc2)C2(C(=O)NC3CCCCC3)CCCCC2)N1 (centres unmarked),10.9
21,COC(=O)CCc1c(C)c(C(=O)c2cc(OC)c(OC)c(OC)c2)c2ccccn12,-2.41
22,O=C(NC1CCCCC1)N(CCO)Cc1cc2cc3c(cc2[nH]c1=O)OCCO3,16.2

row,Compound,"hERG current change (%, negative = inhibition) at 1uM [%]"
1,O=C(NCc1ccc2c(c1)OCO2)c1cc(-n2cnnc2)ccc1Cl,-8.28
2,COc1ccc(CCNC(=O)/C(=C/c2cccnc2)NC(=O)c2ccccc2)cc1,3.27
3,C=CCN(CC=C)C(=O)COC(=O)c1n[nH]c2ccccc12,0.137
4,CCc1c(O)nc(SCC(=O)Nc2nc3ccccc3s2)n(-c2ccccc2)c1=O,7.33
5,CCCCc1nc2ccccc2c(NC(=O)CNC(C)(C)C)c1CCC.O=C(O)C(=O)O,-0.207
6,Cc1cc(C)c(C)c(S(=O)(=O)N2CCC(C(=O)NCc3ccco3)CC2)c1C,5.06
7,Oc1c(/C=C/C=C/C=Nc2ccccc2)sc(=S)n1Cc1ccccc1,2.72
8,COc1ccc(Cl)cc1NC(=O)c1cc(-c2ccccc2O)n[nH]1,9.21
9,O=C(CN1CCN(c2ccccn2)CC1)N1CCc2ccccc21,10.2
10,COc1ccccc1CNCC(=O)Nc1ccc(N2CCOCC2)cc1.O=C(O)C(=O)O,5.38
11,Nc1ncncc1-c1ccc(Cl)cc1,13.1
12,COc1ccc(CNC(=O)Cn2cc(C(F)(F)F)ccc2=O)cc1,7.96
13,CN(c1cccc(NC(=O)c2ccc(C(C)(C)C)cc2)c1)S(C)(=O)=O,3.52
14,Cc1ccccc1NC(=O)COC(=O)C1CC2CCCC(C1)C2=O (centres unmarked),9.65
15,COC(=O)C1=C(c2ccc(-c3ccccc3)c(F)c2)C[C@@H]2CC[C@H]1N2C(=O)NCCCOC(C)C,5.72
16,CCC(Oc1ccccc1)C(=O)Nc1nnc(S(=O)(=O)N2CCCCC2)s1 (centres unmarked),8.82
17,O=C(/C=C/c1c(Cl)cccc1Cl)Nc1ccncc1,2.03
18,COc1cccc2cc(C(=O)NCc3ccco3)c(=O)oc12,12.2
19,COc1ccc2nnc(-c3ccc(C(F)(F)F)cc3)n2n1,12
20,Cc1cc(NC(=O)/C(C#N)=C/c2ccc(-c3ccc(SC(F)F)cc3)o2)n(-c2ccccc2)n1,5.35
